According to ChEMBL document CHEMBL4888484, “Replenishing the malaria drug discovery pipeline: Screening and hit evaluation of the MMV Hit Generation Library 1 (HGL1) against asexual blood stage Plasmodium falciparum ,using a nano luciferase reporter read-out” (2022):
The whole screen tested about 150,000 compounds, of which about 540 (0.36%) showed an effect of 50% or more. The list shows a part of the results.

system: Plasmodium falciparum; experiment: Primary screen in NF54 nanoGlo assay, in single point, at 2uM, 72h; a lower Z score goes with more inhibition; assay type: functional, Erythrocyte; conditions: timepoint 72 hour

Structure (SMILES)	% Inhibition	Z score
CC[C@@H](CO)NC(=O)c1conc1C(C)(C)NC(=O)OC(C)(C)C	-1%	0.19
COCCN(CCOc1ccccc1F)C(=O)Nc1cnns1	6%	-0.88
Cc1ccc(-c2cccc(C(=O)NCCCn3c(C)cccc3=O)c2)c(C)n1	-1%	0.23
Cc1cc(NS(=O)(=O)c2c(C)c(C)cc3c(C)c(C(=O)N4CCCCC4)oc23)no1	-11%	2.03
COc1ccccc1CNC(=O)C[C@@H](c1ccsc1)c1c[nH]c2cccc(OC)c12	22%	-2.74
O=C([C@H]1CC2CCC1CC2)N1CCC12CCC2	-40%	4.74
O=S(=O)(Nc1cccc2[nH]cnc12)c1ccc(Br)o1	-17%	3.19
COc1cccc(CN2CC(n3cc(C(=O)N(C)C)nn3)C2)c1OC	1%	-0.22
COc1ccc2c(c1)N(Cc1ccc(C(=O)N(C)C)[nH]1)C[C@H](C)O2	-1%	0.16
COC1CCN(S(=O)(=O)NCc2nc3c(F)cccc3[nH]2)CC1	-14%	2.21
Cc1cc(=O)n(Cc2ccccc2)c2c(C)cccc12	36%	-1.17
Cn1cc(S(=O)(=O)N2CCCN(C(=O)c3ccc(OC(F)(F)F)cc3)CC2)cn1	-6%	1
CC(=O)c1cnc(NCCCc2c(C)n[nH]c2C)nc1C	-3%	0.45
COC(=O)[C@@H](C)CN(Cc1ccccc1)c1ncccn1	-5%	0.61
COCc1nc(C2CC2)nn1-c1ccc(Cl)cc1C	-6%	1.22
C[C@@H](c1nc2ccccc2n1C(F)F)N1CCC(c2nc3ccccc3s2)CC1	-3%	0.45
COc1ccc(C(C)(C)CNC[C@H](C)C#N)cc1OC	-13%	2.05
CCOc1ccc(NC(=O)CCn2c(C(F)(F)F)nc3cc(S(=O)(=O)N(C)C)ccc32)cc1	1%	-0.11
CN1C(=O)C2(CCN(C(=O)c3cccs3)CC2)C[C@H]1C(=O)NC1CCCC1	-16%	2.08
CC(C)CCOCC1C[C@]2(CC(C)(c3csc(Nc4ccccc4Cl)n3)OC2=O)C(=O)O1 (stereo partly specified)	1%	-0.08
CN1CCC(N(C)C(=O)c2cnc(Cc3c(Cl)cccc3Cl)nc2O)CC1	2%	-0.31

Structure (SMILES)	% Inhibition	Z score
O=C1O[C@H](C(=O)Nc2ncccc2OCC2CCCCC2)Cc2ccccc21	-8%	1.02
CCCNC(=O)CNc1cncc(OC)n1	-12%	1.86
CCn1cc(N(CC(C)C)C(=O)[C@H]2CCCO2)cn1	-12%	1.5
COCCN1C(=O)CC(CC(=O)N2CCN(C)C[C@@H]2C(C)C)(c2ccccc2OC)C1=O (stereo partly specified)	6%	-1.28
CCCc1ccc(C(=O)c2sc(-c3c(C)nc4ccccn34)nc2-c2cc(F)c(F)cc2Cl)cc1	1%	-0.2
N#Cc1oc2ccccc2c1NC(=O)CN1CCCCC1	-6%	1.03
Cc1ccc(S(=O)(=O)C(C#N)c2nc3ccccc3nc2N2CC(C)OC(C)C2)cc1 (stereo unspecified)	-7%	1.37
CCc1ccc2c(c1)C(c1c(C)[nH]c3ccccc13)(c1c(C)[nH]c3ccccc13)C(=O)N2	-30%	3.52
COCCN1CC(=O)N[C@H]2CN(Cc3ncc(C)c(OC)c3C)C[C@@H]2OCc2cccc(c2)Oc2cncc(c2)C1=O	6%	-0.8
O=C(c1cnn(-c2ccccc2)n1)N1CCC(c2nnc(-c3ccc(F)cc3)o2)CC1	14%	-1.84
O=C(CC1(O)CCC1)NC[C@H]1CCCc2ccc(C(=O)O)cc21	-10%	1.37
C[C@@]1(C(=O)O)CCCN1Cc1ccc(Cl)cc1-n1cncn1	-10%	1.32
Cc1ccc2sc(CS(=O)(=O)c3ccc(N4CCCC4=O)cc3)nc2c1	-5%	0.68
Cc1cc(C(=O)N2CCC3(CC2)Cc2cccc(c2)Oc2cccc(c2)CCNC3=O)n(C)n1	-17%	2.15
CC1CC(N2CCOCC2)CN1C(=O)c1ncn(C(C)(C)C)n1 (stereo unspecified)	-4%	0.61
CCc1ccc(C(C)(C)CN=C(N)N(C)C)cc1	-10%	1.14
O=C(c1cccc(-n2ccnc2)n1)N1CCO[C@H](c2ccc(F)cc2Cl)C1	11%	-1.61
Cc1ccsc1-c1nc(CN2CCC[C@](C)(CO)C2)c(C)o1	-18%	2.26
C[C@H]1CC(=O)Nc2ccccc2N1C(=O)CNCCc1ccccc1	1%	-0.22
CC(O)CN(Cc1cccc(OC(F)(F)F)c1)C(C)CO (stereo unspecified)	-2%	0.37
Cc1cc(Cl)cc2nc(N3CCCNCC3)oc12	8%	-0.96

Structure (SMILES)	% Inhibition	Z score
Cc1ccc(Nc2ccc(N3CCNCC3)nn2)nc1	47%	-6.37
COc1cc(NC(=O)NCCS(=O)(=O)N(C)C)cc(C(F)(F)F)c1	-4%	0.73
C[C@@]1(C(=O)NCc2ccccc2)CCC(=O)N1Cc1ccccc1	-9%	1.05
CCN(Cc1cc(Br)ccc1O)C(=O)[C@H]1CCn2cncc2C1	5%	-0.51
O=C(CCc1ccccn1)Nc1cc(CCc2ccccc2)n[nH]1	7%	-0.92
COc1cccc(CC(=O)N2CCC3(CC2)[C@@H](OC)CN3c2ccc(C)cc2)c1	-7%	0.86
Cc1cc(N2CCCCS2(=O)=O)cc(C)c1S(=O)(=O)N1CCOCC1	-6%	1.26
COc1ccc([C@@H](O)Cn2cnc(C(=O)NCc3ccc(Br)cc3)n2)cc1	2%	-0.19
COCCN1C(=O)C[C@](CC(=O)N2CCC(C)CC2)(c2cccc(OC)c2)C1=O	3%	-0.47
Cc1ccccc1CNC(=O)CN1CCN(CCO)[C@@H]2CS(=O)(=O)C[C@@H]21	-9%	1.18
O=C(CN1CCCc2nc(-c3ccccc3)ncc2C1=O)NCC1CC1	2%	-0.33
CN1C[C@H](NCc2cccc3c2OCO3)CCC[C@@H](C(=O)NCc2cc(F)cc(F)c2)CC1=O	-7%	0.91
COc1ccccc1OCC(=O)N1CC[C@@](O)(C2CCOCC2)[C@H](C)C1	-10%	1.94
Cc1cc(OCC(=O)N2CCN(c3ccc(F)cc3)CC2)nc2c1c(C)nn2C	-15%	1.63
CCCCS(=O)(=O)N=C1NCN(c2ccc(Cl)cc2)CN1	-1%	0.28
OC1CC(C2CCCCC2)N(CCc2ccncc2)C1 (stereo unspecified)	-8%	1.08
CC(C)(C)OC(=O)N1CCN(CCF)CCN(CCF)CC1	2%	-0.3
CC(C)(C)NS(=O)(=O)c1cc(N)ccc1F	-5%	0.92
Cc1ccc(C)c(S(=O)(=O)NCCc2cnn(-c3ccccc3)c2)c1	-6%	0.86
COc1ccccc1[C@H](C)NC(=O)Cn1cnc2c1CCNC21CCOCC1	-3%	0.52
CN(C)CCNS(=O)(=O)Cc1ccccc1	-9%	1.64

Structure (SMILES)	% Inhibition	Z score
O[C@]1(CN2CCCC2)COCCN(c2nccc(C(F)(F)F)n2)C1	-1%	0.08
CC1CN(Cc2ccc(C#N)cc2)CCN1C(=O)c1ccccc1OCC1CCCO1 (stereo unspecified)	1%	-0.12
Cc1ccc(S(=O)(=O)Cc2ccc(-c3nc(-c4cccc(C(F)(F)F)c4)no3)o2)c(C)c1	-1%	0.14
Cc1cccc(CNS(=O)(=O)c2cc3c(s2)CCN(C(=O)C2CCC2)C3)c1	-7%	1.29
CC(=O)N(c1nc(C=C(C)c2cnccn2)cs1)C1CC1	-11%	1.11
CC(C)(C)c1nccc(NC2CCCC2C(N)=O)n1 (stereo unspecified)	-3%	0.63
C#CCn1ccnc1CNc1nnc(CCCC)o1	-7%	1.15
O=C(CC1CCCC1)NCCn1ccnc1	-6%	0.87
O=C(NC1CCCCC1)C(=O)N1CC2CCCC21 (stereo unspecified)	-14%	2.18
CCc1ncc(C(=O)N2CCO[C@@H](CCCc3ccccc3)C2)cn1	-2%	0.24
COCCCN(C)C(=O)N1CCCC[C@H](N2CCN(C)CC2)C1	-14%	1.51
O=C(Nc1cccc(S(=O)(=O)N2CCCC2)c1)C1=NN(c2ccccc2)C(=O)CC1	1%	-0.13
C=C1C(C)C2C(Cc3c[nH]c4ccccc34)NC(=O)C23C(=O)CC(O)C(O)CC(C)C/C=C/C3C1O (stereo unspecified)	67%	-7.59
C[C@H](NC(=O)NC[C@H]1CCCC[C@@H]1O)c1cccc(O)c1	2%	-0.32
O=C(C1CCN(c2ncnc3c2oc2ccccc23)CC1)N1CCOCC1	-5%	0.97
COC(=O)CCNC(=O)C1CCCC1C(=O)NCCC(=O)OC (stereo unspecified)	-1%	0.11
Cc1cc(-c2nc3ccccc3s2)ccc1NC(=O)NCc1ccc(F)cc1	-11%	1.78
O=C(N1CC2CC1CO2)C1(c2ccccc2)CCOCC1 (stereo unspecified)	-12%	1.44
CN(C)c1ccc(CCC(=O)N2CCCC[C@@H]2CCN2CCCC2=O)cc1	-4%	0.36
Cc1cc(N(C)C)nc(CNC(=O)Cc2ccccc2)n1	-4%	0.68
